In the supplement of paper PMC10126150:
Values marked as one replicate rest on one cluster of the flow cell; about a third of the high ones do not repeat.

Tested on: ATP
Experiment: switch fluorescence ratio, 500 uM ATP over buffer (Cy3 cluster intensity, sum of 5 cycles each) (fold (ratio)); higher = stronger signal-on switching upon ATP binding; sequences stand for … in TCGTCGGCAGCGTCAGATGTGTATAAGAGACAGTTTTTTTTTTTTTTTTTTTTTTTTT…TC
Conditions: aptamer strand: ATP DNA aptamer (quencher-CACCTGGGGGAGTATTGCGGAGGAAGG + anchor), 100 nM annealed; ATP concentration: 500 uM; one replicate
Procedure, shortened: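 The quencher-labelled ATP aptamer, at 100 nM, was annealed to Cy3-labelled switching-strand clusters on a modified Illumina MiSeq flow-cell. The clusters were imaged in selection buffer, then after 15 min with 500 uM ATP at 22 °C, and this buffer/ATP cycle ran five times with NaOH stripping and re-annealing between runs. Per-cluster fluorescence ratios, summed target-cycle over summed buffer-cycle Cy3 intensity, were averaged per switch-domain sequence. Clusters outside 100-1000 RFU were excluded.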
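Also: ATP exposure 15 min at 22 °C before imaging.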

CGTATAACAG
switch fluorescence ratio: 0.994

ACTCCGGTGA
switch fluorescence ratio: 3.19

TTCGAAGTCG
switch fluorescence ratio: 1.04

GGATCGTGAC
switch fluorescence ratio: 1.03

TCGGTTGCCT
switch fluorescence ratio: 0.994

GGAATCGTT
switch fluorescence ratio: 1

TACGAGATAA
switch fluorescence ratio: 1.03

TTAATTATTC
switch fluorescence ratio: 0.968

CGGTAGCCTA
switch fluorescence ratio: 0.991

TACTTAGCAA
switch fluorescence ratio: 2.62

CTAGATTGTC
switch fluorescence ratio: 1.01

GCCCTAATCG
switch fluorescence ratio: 0.993

GCTCAAGAT
switch fluorescence ratio: 1.21

TATCGACTGT
switch fluorescence ratio: 0.997

GGATTCTGAG
switch fluorescence ratio: 0.996

TTTATAATCC
switch fluorescence ratio: 1.09

GGTGATGCAC
switch fluorescence ratio: 1.01

TATACCTATA
switch fluorescence ratio: 1.06

CGACAAAGAC
switch fluorescence ratio: 3.07

TCTTACTGTA
switch fluorescence ratio: 1.07

TGCCTTAGAT
switch fluorescence ratio: 0.984

AAAATAATAC
switch fluorescence ratio: 0.999

GATGCTAAGG
switch fluorescence ratio: 0.976

TGCTTCGGC
switch fluorescence ratio: 0.959

TCTTTGTAAA
switch fluorescence ratio: 0.984

GGACGGTTT
switch fluorescence ratio: 1.01

GCCGAGGTAA
switch fluorescence ratio: 1.04

CGAACTCAGC
switch fluorescence ratio: 1.18

TGGGGAAGAT
switch fluorescence ratio: 0.958

TTCGGCCTGT
switch fluorescence ratio: 0.981

GTCAACGTCC
switch fluorescence ratio: 1.05

GACGATACTA
switch fluorescence ratio: 1.38

TAGGAAAGGT
switch fluorescence ratio: 0.969

ACCTCTGGTG
switch fluorescence ratio: 1.42

GGTACGTATA
switch fluorescence ratio: 1.15

TTAGATCGTA
switch fluorescence ratio: 0.977

TGGGCTGGGT
switch fluorescence ratio: 1.01

TACGGCTGCT
switch fluorescence ratio: 1.06

AGTTGAATAG
switch fluorescence ratio: 1.03

CGTGACCATG
switch fluorescence ratio: 0.939

TCTTATGAGG
switch fluorescence ratio: 1.02

TATTCTGTG
switch fluorescence ratio: 1.01

CCATGTCGTC
switch fluorescence ratio: 1.01

TTACTGATT
switch fluorescence ratio: 1.01

GGTGTCTGTC
switch fluorescence ratio: 0.949

CGTCCTATGT
switch fluorescence ratio: 1

ATGACGCGCC
switch fluorescence ratio: 1.05

ATCCACCGTT
switch fluorescence ratio: 1.07

TACCTGATGG
switch fluorescence ratio: 1.02

GGGTGGTTGT
switch fluorescence ratio: 0.981

TCTTTTGACG
switch fluorescence ratio: 0.922

CCAGGTACAG
switch fluorescence ratio: 1.09

GTCGTGGAGT
switch fluorescence ratio: 1.1

CATTGGTTCG
switch fluorescence ratio: 1.04

GAGTGTATAG
switch fluorescence ratio: 1.03

ATGAGCTTGA
switch fluorescence ratio: 0.965

ACTTCCCTCG
switch fluorescence ratio: 1.91

GGGCAGGGG
switch fluorescence ratio: 1.04

ATCTCGATAG
switch fluorescence ratio: 1.05

CTCTGATACT
switch fluorescence ratio: 1.32

CTTCTGCTAT
switch fluorescence ratio: 1.16

ACTATCTCTT
switch fluorescence ratio: 1.02

CGAATGTAGG
switch fluorescence ratio: 0.954

GCACTCTATG
switch fluorescence ratio: 1.01

TGGAAGATTT
switch fluorescence ratio: 0.987

TCACTTTTGT
switch fluorescence ratio: 1

GACCATGTCG
switch fluorescence ratio: 1.1

GTGTTACTCG
switch fluorescence ratio: 1.05

AGAGCGTTCT
switch fluorescence ratio: 0.972

CGCCTGTTTT
switch fluorescence ratio: 1.02

CATTCAGTGA
switch fluorescence ratio: 0.992

CTGTGCCAGA
switch fluorescence ratio: 1.02

CTTACGCAG
switch fluorescence ratio: 1.05

TCGGGAGG
switch fluorescence ratio: 1.01

GGGGACCCCA
switch fluorescence ratio: 1.07

ACGTCTTCGA
switch fluorescence ratio: 0.971

TTCGGGGCAC
switch fluorescence ratio: 0.991

AGGGCCGCGA
switch fluorescence ratio: 1.54

ACCTAACCT
switch fluorescence ratio: 1.77

CATCGGTGAT
switch fluorescence ratio: 1.02

ATAATCGATG
switch fluorescence ratio: 0.976

GCGCGCCCTG
switch fluorescence ratio: 1

TACCGGTCGC
switch fluorescence ratio: 1.03

CGTAGTTGCA
switch fluorescence ratio: 0.946

ACTGAGTTT
switch fluorescence ratio: 0.994

CTATATTTGT
switch fluorescence ratio: 1.04

ACATACCTGG
switch fluorescence ratio: 1.3

TCCGCCGTGG
switch fluorescence ratio: 0.988

GTCATTGTCG
switch fluorescence ratio: 1.05

GAGTTAATAC
switch fluorescence ratio: 1.19

GTGAAGTCTC
switch fluorescence ratio: 0.943

CGTGGGGAGA
switch fluorescence ratio: 1.08

CATAGCTTTA
switch fluorescence ratio: 1.05

TGTATTAGGT
switch fluorescence ratio: 1

GGGTGGTACA
switch fluorescence ratio: 0.958

GCCAAAGCGC
switch fluorescence ratio: 1.03

ATTAGAAGTG
switch fluorescence ratio: 0.986

CTCATCACGA
switch fluorescence ratio: 0.994

ACTAACGGCA
switch fluorescence ratio: 1.38

TAATCAAGT
switch fluorescence ratio: 1

TCAGGCGAAA
switch fluorescence ratio: 1.03
